In patent US20170107179A1 (Tetraphase Pharmaceuticals, Inc., priority 2010, published 2017):

Test system: Klebsiella pneumoniae KP457 (2009 ESBL+, CTX-M, OXA)
Test: Minimum Inhibitory Concentration (MIC) assay, CLSI broth dilution
Set-up: key: A = lower than or equal to lowest MIC among three control compounds; B = greater than lowest MIC among three control compounds, but lower than highest MIC among three control compounds; C = greater than MIC of all three control compounds
Conditions: Table 7; class vs MICs of sancycline, minocycline, tigecycline
Experimental: Briefly, frozen bacterial strains were thawed and subcultured onto Mueller Hinton Broth (MHB) or other appropriate media (Streptococcus requires blood and Haemophilus requires hemin and NAD). Following incubation overnight, the strains were subcultured onto Mueller Hinton Agar and again incubated overnight. […] Isolated colonies were selected to prepare a starting inoculum equivalent to a 0.5 McFarland standard. The starting inoculum was diluted 1:125 (this is the working inoculum) using MHB for further use. […] .
The assays were run as follows. Fifty μL of MHB was added to wells 2-12 of a 96-well plate. One hundred μL of appropriately diluted antibiotics was added to well 1. Fifty μL of antibiotics was removed from well 1 and added to well 2 and the contents of well 2 mixed by pipetting up and down five times. Fifty μL of the mixture in well 2 was removed and added to well 3 and mixed as above. Serial dilutions were continued in the same manner through well 12. Fifty μL was removed from well 12 so that all contained 50 μL. Fifty μL of the working inoculum was then added to all test wells. A growth control well was prepared by adding 50 μL of working inoculum and 50 μL of MHB to an empty well. The plates were then incubated at 37° C. overnight, removed from the incubator and each well was read on a plate reading mirror. The lowest concentration (MIC) of test compound that inhibited the growth of the bacteria was recorded.
The following bacterial strains, listed below, were examined in minimum inhibitory concentration (MIC) assays.

Compound | MIC KP457
CN(C)[C@@H]1C(O)=C(C(N)=O)C(=O)[C@@]2(O)C(O)=C3C(=O)c4c(O)c5c(c(F)c4C[C@H]3C[C@@H]12)CN1CCCC[C@@H]1C(=O)N5 [Compound 410] | C
CN(C)[C@@H]1C(O)=C(C(N)=O)C(=O)[C@@]2(O)C(O)=C3C(=O)c4c(O)c5c(c(F)c4C[C@H]3C[C@@H]12)CN1CCCC[C@H]1C(=O)N5 [Compound 418] | C
CN(C)[C@@H]1C(O)=C(C(N)=O)C(=O)[C@@]2(O)C(O)=C3C(=O)c4c(O)c5c(c(F)c4C[C@H]3C[C@@H]12)CN(C)C1(CC1)C(=O)N5 [Compound 422] | C
CN(C)[C@@H]1C(O)=C(C(N)=O)C(=O)[C@@]2(O)C(O)=C3C(=O)c4c(O)c5c(c(F)c4C[C@H]3C[C@@H]12)CN(C)C1(CCCC1)C(=O)N5 [Compound 425] | C

The next lines start with the values.

MIC KP457 | Compound
C | CN(C)[C@@H]1C(O)=C(C(N)=O)C(=O)[C@@]2(O)C(O)=C3C(=O)c4c(O)c5c(c(F)c4C[C@H]3C[C@@H]12)CN1C[C@@H](F)C[C@H]1C(=O)N5 [Compound 404]
C | CN(C)[C@@H]1C(O)=C(C(N)=O)C(=O)[C@@]2(O)C(O)=C3C(=O)c4c(O)c5c(c(F)c4C[C@H]3C[C@@H]12)CN1C[C@H](O)C[C@H]1C(=O)N5 [Compound 414]
C | CN(C)[C@@H]1C(O)=C(C(N)=O)C(=O)[C@@]2(O)C(O)=C3C(=O)c4c(O)c5c(c(F)c4C[C@H]3C[C@@H]12)CN1C[C@@H](O)C[C@H]1C(=O)N5 [Compound 417]
